PubChem BioAssay (NCI)
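Five concentrations, 48 hours, 96-well plates. GI50 is the concentration that inhibits growth by half. Definition used: TGI = concentration required for complete inhibition of growth.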

Tested on: NCI-H322M lung
Test: growth of human tumour cells (NCI), 48 h

Row | Compound | GI50 [nM] | TGI [nM]
1 | c1ccc(-c2n(Cc3ccc4ccccc4c3)c3c4ccccc4c4ccccc4c3[n+]2Cc2ccc3ccccc3c2)cc1 | 645 | 2030
2 | CCc1cccc2c3c(sc12)C(c1ccc(F)cc1)C(C#N)=C(/N=C/c1ccc(Cl)cc1)O3 (centres undefined) | 663 | > 100000
